# The other results are listed elsewhere or left out.
# B1: Epa1-NP-mutant-E227A (Candida glabrata), Q6VBJ0 (protein)
# chain: MILNPALFLNKCVCIYTTLILLLLTNGGYATSSNDISLASKDPTTFPLGCSPDITTPKKGLSMELYSYDFRKKGSYPCWDAAYLDPNYPRTGYKSHRLLAKVDGVTGNINFYYHATKGCTPQLGHLPASYNYPKPLTMTNFTMLLYGYFRPKVTGFHTFTISADDLLFVNFGAGNAFDCCRRDSSADHFGNYQAYAIWGSKTAKDELTVHLDAGVYYPIRLFYNNRAYDGALSFTFKTESNENTVSDFSEYFFSLDDTEEGCPGLISYDSSCASVKTSKIIGIDYHTETPNENLVPITKTIYHLGIPCTGTTTTPLCGSGFYDPLANKCVTINTSSTSSVTKTTSHTTSKEVSFHSSISSQKTLIPKSIPSPYGPIKSQSIPTEMETSSEISSSEYAFSDVISTPSHSPYTKKHSSLNSSSYTSTVIHSLTSYSISQGIFSTSLSEQNITSKSSTDKFSTATSMSNNITQSSIIISQFSTNNENYTTTSMHTSSDKISTETLNNSISTTTSILFSNSSTILKNNTTIISSDKDTHYHPVNPTIVCSTNKTEIICASITQPSISNSNNHWSSSVLKFNSTTVRSTLPSSAGSNETSINVPFSSSTESNTSTSSTSTSNSKMVRSTLPSSAGSNETSISVPFSSSTESNTSTSSTSTSNSKMVRSTLPSSAGSNETSINVPFSSSTESNTSTSSTSTSNSKTVRSTPFSSAGIIMTSLSQRNNKSASSYASSNSKCYNTADSCRKVHSTPSYLLTSSYTSEGVDYDCSLVSTKLKINDTNCVNNKHTTKSCLKTSVTTTIPTLEIKTARKSSSNTIGLHSYPTSSPNKSISSAPIIGYISSFKTIKTASPSYQTSDLTTITTITSLNNPGSTAVENTHESNDKSRKTSSNDISSKHSVIKETKDAVESSNKSHQTNTLKCSSIIIASSSHNSYESLGGTTLTLTLSKVYSPQNNDTLPFLEISEVNPSRTVLPESSKMMQYLTSTEERNKTARNTIATNIVSISTFHFEGEGNAIRMGYTQLLLMLIGIIVMNIGT
# What was measured:
# Test in all cases: glycan array binding signal (z-score within array); higher = stronger binding
# Settings in all cases: glycan notation: IUPAC condensed, linker removed; mutation: E227A
# Fuc(a1-2)Gal(b1-4)Glc = target: Fuc(a1-2)Gal(b1-4)Glc
# Summary of the method: (§1)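 From the Consortium for Functional Glycomics database, 3228 arrays were curated, keeping only those whose protein sequence was available. Binding is given as a within-array Z-score averaged across arrays sharing a protein sequence and across linkers. Negative Z-scores can be read as non-binding.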
# Fuc(a1-2)Gal(b1-4)Glc6S = target: Fuc(a1-2)Gal(b1-4)Glc6S
# Summary of the method: as §1
# Fuc(a1-2)Gal(b1-4)GlcNAc = target: Fuc(a1-2)Gal(b1-4)GlcNAc
# Summary of the method: as §1
# [1] = target: Fuc(a1-2)Gal(b1-4)GlcNAc(b1-2)Man
# Summary of the method: as §1
# [2] = target: Fuc(a1-2)Gal(b1-4)GlcNAc(b1-2)Man(a1-3)[Fuc(a1-2)Gal(b1-4)GlcNAc(b1-2)Man(a1-6)]Man(b1-4)GlcNAc(b1-4)GlcNAc
# Summary of the method: as §1
# [3] = target: Fuc(a1-2)Gal(b1-4)GlcNAc(b1-2)Man(a1-3)[Fuc(a1-2)Gal(b1-4)GlcNAc(b1-2)Man(a1-6)]Man(b1-4)GlcNAc(b1-4)[Fuc(a1-6)]GlcNAc
# Summary of the method: as §1
# [4] = target: Fuc(a1-2)Gal(b1-4)GlcNAc(b1-2)[Fuc(a1-2)Gal(b1-4)GlcNAc(b1-4)]Man(a1-3)[Fuc(a1-2)Gal(b1-4)GlcNAc(b1-2)Man(a1-6)]Man(b1-4)GlcNAc(b1-4)GlcNAc
# Summary of the method: as §1
# [5] = target: Fuc(a1-2)Gal(b1-4)GlcNAc(b1-3)Gal(b1-4)GlcNAc
# Summary of the method: as §1
# [6] = target: Fuc(a1-2)Gal(b1-4)GlcNAc(b1-3)Gal(b1-4)GlcNAc(b1-2)Man(a1-3)[Fuc(a1-2)Gal(b1-4)GlcNAc(b1-3)Gal(b1-4)GlcNAc(b1-2)Man(a1-6)]Man(b1-4)GlcNAc(b1-4)GlcNAc
# Summary of the method: as §1
# [7] = target: Fuc(a1-2)Gal(b1-4)GlcNAc(b1-3)Gal(b1-4)GlcNAc(b1-3)Gal(b1-4)GlcNAc
# Summary of the method: as §1
# [8] = target: Fuc(a1-2)Gal(b1-4)GlcNAc(b1-3)GalNAc
# Summary of the method: as §1
# [9] = target: Fuc(a1-2)Gal(b1-4)GlcNAc(b1-3)[Fuc(a1-2)Gal(b1-4)GlcNAc(b1-6)]GalNAc
# Summary of the method: as §1
# [10] = target: Fuc(a1-2)Gal(b1-4)GlcNAc(b1-3)[Fuc(a1-3)[Gal(b1-4)]GlcNAc(b1-6)]Gal(b1-4)Glc
# Summary of the method: as §1
# [11] = target: Fuc(a1-2)Gal(b1-4)GlcNAc(b1-6)GalNAc
# Summary of the method: as §1
# [12] = target: Fuc(a1-2)Gal(b1-4)GlcNAc6S
# Summary of the method: as §1
# [13] = target: Fuc(a1-2)Gal(b1-4)[Fuc(a1-3)]GlcNAc
# Summary of the method: as §1
# [14] = target: Fuc(a1-2)Gal(b1-4)[Fuc(a1-3)]GlcNAc(b1-2)Man(a1-3)[Fuc(a1-2)Gal(b1-4)[Fuc(a1-3)]GlcNAc(b1-2)Man(a1-6)]Man(b1-4)GlcNAc(b1-4)[Fuc(a1-6)]GlcNAc
# Summary of the method: as §1
# [15] = target: Fuc(a1-2)Gal(b1-4)[Fuc(a1-3)]GlcNAc(b1-2)[Fuc(a1-2)Gal(b1-4)[Fuc(a1-3)]GlcNAc(b1-4)]Man(a1-3)[Fuc(a1-2)Gal(b1-4)[Fuc(a1-3)]GlcNAc(b1-2)Man(a1-6)]Man(b1-4)GlcNAc(b1-4)GlcNAc
# Summary of the method: as §1
# [16] = target: Fuc(a1-2)Gal(b1-4)[Fuc(a1-3)]GlcNAc(b1-3)Gal(b1-4)[Fuc(a1-3)]GlcNAc
# Summary of the method: as §1
# [17] = target: Fuc(a1-2)Gal(b1-4)[Fuc(a1-3)]GlcNAc(b1-3)Gal(b1-4)[Fuc(a1-3)]GlcNAc(b1-3)Gal(b1-4)[Fuc(a1-3)]GlcNAc
# Summary of the method: as §1
# [18] = target: Fuc(a1-2)Gal(b1-4)[Fuc(a1-3)]GlcNAc(b1-3)GalNAc
# Summary of the method: as §1
# [19] = target: Fuc(a1-2)Gal(b1-4)[Fuc(a1-3)]GlcNAc(b1-3)[Neu5Ac(a2-6)Gal(b1-4)GlcNAc(b1-6)]Gal(b1-4)Glc
# Summary of the method: as §1
# [20] = target: Fuc(a1-2)Gal3S(b1-4)GlcNAc
# Summary of the method: as §1
binder,measurement,setting,value
B1,glycan array binding signal (z-score),Fuc(a1-2)Gal(b1-4)Glc,-0.184
same,glycan array binding signal (z-score),Fuc(a1-2)Gal(b1-4)Glc6S,-0.121
same,glycan array binding signal (z-score),Fuc(a1-2)Gal(b1-4)GlcNAc,-0.188
same,glycan array binding signal (z-score),[1],-0.182
same,glycan array binding signal (z-score),[2],-0.148
same,glycan array binding signal (z-score),[3],-0.171
same,glycan array binding signal (z-score),[4],-0.195
same,glycan array binding signal (z-score),[5],-0.23
same,glycan array binding signal (z-score),[6],-0.185
same,glycan array binding signal (z-score),[7],-0.186
same,glycan array binding signal (z-score),[8],-0.159
same,glycan array binding signal (z-score),[9],-0.193
same,glycan array binding signal (z-score),[10],-0.219
same,glycan array binding signal (z-score),[11],-0.184
same,glycan array binding signal (z-score),[12],-0.104
same,glycan array binding signal (z-score),[13],-0.209
same,glycan array binding signal (z-score),[14],-0.178
same,glycan array binding signal (z-score),[15],-0.179
same,glycan array binding signal (z-score),[16],-0.141
same,glycan array binding signal (z-score),[17],-0.216
same,glycan array binding signal (z-score),[18],-0.16
same,glycan array binding signal (z-score),[19],-0.217
same,glycan array binding signal (z-score),[20],0.669
